This passage reports self-cleavage results from the RNAGym collection of RNA variant scans (doi:10.7554/elife.90254).

The chains are these.
B1: LINE1-mini (parent)
chain: GGCAGAGCUCAACACAGCGUGGCAAAGUGGCUGUGGCUAGACUGCC

Read counts are not given, so values of variants with three or more changes are uncertain.

In this series the parent is B1. Briefly: self-cleavage, relative activity (ratio to wild type); higher = more cleavage; in vitro, sequencing; the parent is a self-cleaving ribozyme.
As to GGCAGAGCGCUACACAGCGUGGCAAAGUGACUGUGGCUAGACUGCC [U9G A11U G30A], the self-cleavage came to 0.03. Turning to GGCUGAACUCAUCACAGCCUGCCGAAGUGGCUGUGGCUAGACUGCC [A4U G7A A12U G19C G22C A24G], the self-cleavage stood at 0.03. Regarding GGCUGAGCUCAACACAGCGUGGCAAAGUGGAUGUGGCUCGACAGCC [A4U C31A A39C U43A], the self-cleavage turned out to be 0.02. Next, GGGAGAGCUCAACACAGCAUGGCAAAGUUGCUGUGGCUAGACUGCG [C3G G19A G29U C46G]: 0.2; GCCAGAGCUCAAUACAGCAUGGCAAAGUGGCUGUGGCUAGACUGCC [G2C C13U G19A]: 0; AGCAGAGGUCAACACAGCGUGGCAAAGUGGCUGUGUCUAGGCUGCC [G1A C8G G36U A41G]: 0.12.

On to GGCACAGCUCAUCACAGCGUGGCGAAGUGGCUGUGGCUAGCCUGCC [G5C A12U A24G A41C], for which the self-cleavage is 0.01.

Regarding CGUAGAGCUCAACACAGCGUGGCAAAGUUGCUGUGGCUAGACUGCC [G1C C3U G29U], the self-cleavage was determined as 0.29. In the case of GGCAGAGCUCAACACAGCGUGGUAAAGUGGCUGUUGCUAUACUGUC [C23U G35U G40U C45U] it was 0.13; in that of GGCAGAGCUCAACACAGCGUGGCAAAGUGGCUUUGGCUAGACUGUA [G33U C45U C46A], 0.11; in that of GGCAGCGCUCAACACAGCGUAGCAAAGUGGCUGUGUCCAGACUGCC [A6C G21A G36U U38C], 0.12. For GGCAGAGAUCAACGCAGCAUGGCAAAGUGGCAGUGGCUAGACUGCC [C8A A14G G19A U32A], the self-cleavage is 0.03. For GGCAGGGCUCAACACAGCGUGGCAAAGUGGCUGUGACUAGACUGCU [A6G G36A C46U], the self-cleavage amounted to 0.07. For the variant GGCAGGGCUCAACACAGCGUUGCAAAGUGGCUGUGGCUAGACUGCU [A6G G21U C46U], the self-cleavage turned out to be 0.05. In the case of GGCAGAGCUCAACACACCGUGGCAAAGAGGCUGUGGCUAGACGGCC [G17C U28A U43G], the self-cleavage turned out to be 0.04. In the case of GGCAGGGCUCAACACAGCGUGGCAAAUUGGCUGUGGCUAAACUGCC [A6G G27U G40A] it was 0.09.

On to GGCAGAGCUCCACACAGCGUGAAAAAGUCGCUGUGGCUAGACUGCC [A11C G22A C23A G29C], for which the self-cleavage amounted to 0.02. For GGCAGAGCUCAACACAGCGUGACAAAGUGGCUGUCGCUGGACGGCC [G22A G35C A39G U43G], the self-cleavage worked out at 0.11. Turning to GGCAGAGCUCAACACAGUGUGGCACAGUGGCUGUGGUUGGACUGCC [C18U A25C C37U A39G], the self-cleavage turned out to be 0.04. Consider GGCAGAGCACAAAACCGCGUCGCAAAGUGGCUGUGGGUAGACUGCC [U9A C13A A16C G21C C37G], for which the self-cleavage was found to be 0.13. On to GGCAGAGCUCAACACAGAGUUGCUAAGUGGCUGUGGCUAGACUGCC [C18A G21U A24U], for which the self-cleavage was 1.77. In the case of AGCAGAGCUCAAUACUGCGUGGCAAAGUGGCUGUGGCUACACUGCC [G1A C13U A16U G40C] it was 0.08. In the case of GGCAGAGGUCAAUACAGCGUGGCAAAGUGGCUGUGGGUAGACUUCC [C8G C13U C37G G44U], the self-cleavage came out at 0.07. Next, GGCAGAGCUCAGCACAGCGUGGCAAAGUGGCUGUGGGUAGCCUGCC [A12G C37G A41C]: 0.01; GGCAGAGCUUAAGACAGCGUGGCAAAGUGGCUGUAGCUAGACUGCC [C10U C13G G35A]: 0.02; GGCAGAGAUCUACACAGCGUGGCAAAGUGGCUGUGCCGAGACUGCC [C8A A11U G36C U38G]: 0. As to AGCAGAGCUCAACACAGCGUGUCAAAGUGGCAGUGGCUAAACUGCC [G1A G22U U32A G40A], the self-cleavage was 0.05. Next, GGCAGAGCUCAACACAGCGUUGCAGAGUGGCGGUGGGUAGACUGCC [G21U A25G U32G C37G]: 0.02; GGCAGUGCUGAACACAUCGUGGCAAAGUGGCUGUGGCUAGACUGCC [A6U C10G G17U]: 0.04; GGCAGAGUUCAACACACCGUGGCCAAGUGUCUGUGGCUAGACUGCC [C8U G17C A24C G30U]: 0.15. In the case of GGCAGAGCUCAACACAGCGUGGAGAAUUGGCGGUGGCUAGACUGCC [C23A A24G G27U U32G] it was 0.03; in that of GGCAGAGCUCAACACUGAGUGGCAAAGUGGAUGUGGCUAGACUGCU [A16U C18A C31A C46U], 0.01; in that of GGCAGAGCUCACCACAGCGUGGCAAAGUGGCUGUGGCUAGACUUAC [A12C G44U C45A], 0.07.

For GGCAAAGCUCAACAAAGCGUGGCAAAGUGGCUGUGGCUAGACUUCC [G5A C15A G44U], the self-cleavage was 0.02. For the variant UGCAGAGCUCAACACAGCGUGGCAAUGUGGCUUUGGCUAGACUGCC [G1U A26U G33U], the self-cleavage was 0.12.

With UGCAGAACUCAAAUCAGCGUGUCAAAGUGGCUGUGGCUAGGCUGCC [G1U G7A C13A A14U G22U A41G], the self-cleavage came out at 0.03. In the case of GGCAUAGCCCAACACAGCGGGGCAAAGUGGCUGUGGCUAGACUGAC [G5U U9C U20G C45A] it was 0.02; in that of GGGAGAGCUCAGUACAGCGUGGCAAAGUGGCUGUGGCUAGACUGCC [C3G A12G C13U], 0.28. Next, GGCAGAGCUCAACACAGCGUGGCUAAGUGUCUGUGGCUAGGCUGCC [A24U G30U A41G]: 0.11; GGCAGAGUUCAACACAGCGUGUCAAAGUGGCUGUGGCUAGACUGUC [C8U G22U C45U]: 0.12. On to GGCAGAUCUCAGCAGAGCGUGGCAAAGUUGCUGUGGCUAGACUGCC [G7U A12G C15G G29U], for which the self-cleavage came to 0.04. Next, GGCAGAGCUCAACACAGCAUUGCAAAGUGGCUGUGGGUAGACUGCC [G19A G21U C37G]: 0.02; GGCAGAGCUCAACAGAGCGUGGCAAAGUGGCUGUGGCAAGAUUGCC [C15G U38A C42U]: 0.03; UGUAGGGCUCAACACAGCGUGGCAAAGUGGCUGAGGCUAGACUGCC [G1U C3U A6G U34A]: 0.04. In the case of GGCAGAGCCCAACGCAGGGUGGCAAAGUGGCUGUGGCUAGUCUGCC [U9C A14G C18G A41U] it was 0.05; in that of GGCAGAACUCAACCCAGCGUAGCAUAGUGGAUGUGCUUAGCCUGCC [G7A A14C G21A A25U C31A G36C C37U A41C], 0.17. In the case of AGCAGAGCUCAACACAGCAUGGUAGAGUGGCUGUGGCUCGACUGCC [G1A G19A C23U A25G A39C] it was 0.07; in that of GGCAGUGCUCAACACAGCGACGCAAAGUGGCUGUGGCUAGACUGCU [A6U U20A G21C C46U], 0.63; in that of GGCAGAGUUCAGCACAGCGUGGCACAGUGGCUGUGGCUAGACGGCC [C8U A12G A25C U43G], 0.01. Turning to GGCAGAGUUCUAUACAGCGUGGCACAGUGGCGGUGGCUAGACUGCC [C8U A11U C13U A25C U32G], the self-cleavage was 0.01. Next, GGCAGAGCUAAACUCAGCUUGGCAAAGUGGCUGUGGCUAGACUGCC [C10A A14U G19U]: 0.04; GGCAGAGCUAAACACGGCCUGGCAAAGUGGCUGUGUCUAGACGGGC [C10A A16G G19C G36U U43G C45G]: 0; GGCAGAGCUCAACAAAGAGUGGCUAAGUGGCUGUGGCUAGACUGCC [C15A C18A A24U]: 0.02.

As for GGCUGAGAUCAACACAGCGUGGCAAAGCGGCUGCGGCUAGACUGCC [A4U C8A U28C U34C], the self-cleavage came to 0.06. In the case of GACAGAGCUCAACACAGCGUGGGACAAUGGCUGUGGCUAGACUGCG [G2A C23G A25C G27A C46G] it was 0.14; in that of GGCAGAUCUCAACACAGCUUAACUAAGUGGCUGUGGCUAGACUGCC [G7U G19U G21A G22A A24U], 0.04.
